Measured values from paper doi:10.1101/2022.06.07.495003 (bioRxiv, 2022).

Molecular target: the molecule itself
Test: fluorescence intensity fluctuation

B1: EphA2-eYFP (receptor)
chain: [sequence of about 500 residues omitted]IGGVAVGVVLLLVLAGVGFFIHRRRKNQRARQSPEDVYFSKSEQLKPLKTYVDPHTYEDPNQAVLKFTTEIHPSCVTRQKVIGAGEFGEVYKGMLKTSSGKKEVPVAIKTLKAGYTEKQRVDFLGEAGIMGQFSHHNIIRLEGVISKYKPMMIITEYMENGALDKFLREKDGEFSVLQLVGMLRGIAAGMKYLANMNYVHRDLAARNILVNSNLVCKVSDFGLSRVLEDDPEATYTTSGGKIPIRWTAPEAISYRKFTSASDVWSFGIVMWEVMTYGERPYWELSNHEVMKAINDGFRLPTPMDCPSAIYQLMMQCWQQERARRPKFADIVSILDKLIRAPDSLKTLADFDPRVSIRLPSTSGSEGVPFRTVSEWLESIKMQQYTEHFMAAGYTAIEKVVQMTNDDIKRIGVRLPGHQKRIAYSLLGLKDQVNTVGIPI
With B1 the “stoichiometry N” value was 2.
